Reference: paper PMC7185102
These are yes or no findings as the source states them, for the method shown. Binding seen in cells or lysates may run through a third protein. Some results given as binding are weak or reduced against the parent protein; the word gives no strength.

Experiments:
Experiment in all cases: co-IP; HEK293T cells co-transfected with the FLAG-tagged import receptor and EYFP-UL6 for 24 h; lysate incubated with anti-Flag mAb or mouse IgG control and Protein A/G PLUS-Agarose for at least 4 h or overnight at 4 °C; beads washed three times with lysis buffer; IB with anti-Flag mAb and anti-YFP pAb
[1] = biological target: importin α7 (karyopherin α6, kα6), Flag-tagged (UniProt O60684)
[2] = biological target: importin β1 (karyopherin β1, kβ1), 3×Flag-tagged (UniProt Q14974)
[3] = biological target: transportin-1 (importin β2), FLAG-tagged (UniProt Q92973)
[4] = biological target: importin α3 (karyopherin α4, kα4), Flag-tagged (UniProt O00629)
[5] = biological target: importin α5 (karyopherin α1, kα1), Flag-tagged (UniProt P52294)

herpes simplex virus 1 (HSV-1) UL6, EYFP-tagged (from UniProt P10190 1-676)
binding [1]: binds | binding [2]: no binding | binding [3]: binds | binding [4]: no binding | binding [5]: no binding
